# Measurements reported in article PMC4336329 (PLoS ONE, 2015).
# The campaign covered roughly 310,000 compounds. About 2,200 (0.71%) showed an effect of 50% or more. The effect is printed as a negative number. This is one part of the list.
# Molecular target: human ether-à-go-go-related gene (hERG) potassium channel (human, UniProt Q12809)
# Assay: primary screen, population patch clamp on CHO cells stably expressing hERG
# Sequence of human ether-à-go-go-related gene (hERG) potassium channel (Q12809 whole entry, looked up): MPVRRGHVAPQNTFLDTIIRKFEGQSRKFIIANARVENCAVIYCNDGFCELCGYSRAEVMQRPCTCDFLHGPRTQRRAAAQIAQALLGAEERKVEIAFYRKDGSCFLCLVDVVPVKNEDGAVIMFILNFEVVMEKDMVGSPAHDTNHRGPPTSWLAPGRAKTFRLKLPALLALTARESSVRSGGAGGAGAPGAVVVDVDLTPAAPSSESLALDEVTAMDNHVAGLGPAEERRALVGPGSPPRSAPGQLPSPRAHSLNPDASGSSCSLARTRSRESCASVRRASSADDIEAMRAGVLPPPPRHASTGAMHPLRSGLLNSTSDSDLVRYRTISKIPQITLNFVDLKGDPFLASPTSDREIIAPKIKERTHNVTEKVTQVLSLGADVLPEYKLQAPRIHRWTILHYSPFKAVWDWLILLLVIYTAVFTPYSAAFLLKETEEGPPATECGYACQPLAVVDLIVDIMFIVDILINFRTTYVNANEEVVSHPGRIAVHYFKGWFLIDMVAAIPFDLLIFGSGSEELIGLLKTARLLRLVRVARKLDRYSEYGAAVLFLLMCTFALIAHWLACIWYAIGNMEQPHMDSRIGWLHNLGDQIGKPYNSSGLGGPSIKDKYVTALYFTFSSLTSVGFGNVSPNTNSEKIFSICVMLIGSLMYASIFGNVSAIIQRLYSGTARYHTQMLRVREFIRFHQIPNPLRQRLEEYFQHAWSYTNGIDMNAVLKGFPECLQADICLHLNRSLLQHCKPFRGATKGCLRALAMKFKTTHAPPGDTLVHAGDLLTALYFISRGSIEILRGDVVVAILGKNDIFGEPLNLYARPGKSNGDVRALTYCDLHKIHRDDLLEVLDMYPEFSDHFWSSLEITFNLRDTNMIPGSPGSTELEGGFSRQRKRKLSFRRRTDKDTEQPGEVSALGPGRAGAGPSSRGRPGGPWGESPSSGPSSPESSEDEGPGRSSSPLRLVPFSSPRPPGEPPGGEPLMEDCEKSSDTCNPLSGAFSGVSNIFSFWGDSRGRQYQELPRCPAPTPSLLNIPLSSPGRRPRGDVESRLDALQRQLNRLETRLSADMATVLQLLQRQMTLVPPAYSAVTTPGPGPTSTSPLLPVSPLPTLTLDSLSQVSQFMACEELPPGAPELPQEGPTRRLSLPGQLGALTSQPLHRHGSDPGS
row,SMILES,"hERG current change (%, negative = inhibition) at 1uM"
1,Cc1nn(S(=O)(=O)c2ccc(F)cc2)c(C)c1S(=O)(=O)N1CCOCC1,13.9%
2,CC(C)NCC(O)Cn1c2c(c3ccccc31)CCc1c-2cnn1-c1ccccc1 (stereo not shown),0.912%
3,O=C(c1ccco1)N(c1ccccn1)c1ccccn1,5.08%
4,COc1cc(CN2CCC(n3nccc3NC(=O)CCCc3ccccc3)CC2)ccc1F,9.25%
5,O=C1CC(c2cccc(Oc3ccccc3)c2)NC(=O)N1 (stereo not shown),12.3%
6,O=C1NC(=Nc2ccc(O)cc2)S/C1=C\C=C\c1ccco1,8.07%
7,Cc1cccc(-c2nc3cc([N+](=O)[O-])ccc3o2)c1,4.41%
8,CN(C)S(=O)(=O)c1ccc(NC(=O)COC(=O)Cn2[nH]c(=O)c3ccccc3c2=O)cc1,16.9%
9,CC1CCC(NC(=O)c2cc(S(=O)(=O)N3CCCCC3)ccc2N2CCOCC2)CC1 (stereo not shown),-6.04%
10,COc1ccc2cc(/C(C)=N/NC(=O)c3cc(-c4cccnc4)nc4ccccc34)ccc2c1,4.54%
11,N#CN(Cc1ccccc1)Cc1ccccc1,-13.1%
12,Fc1ccc(-c2csc(N3CCC(c4ccccc4)C3)n2)cc1 (stereo not shown),-8.87%
13,N#CCC(=O)Nc1ccc(C(=O)NCCc2c[nH]c3ccccc23)cc1,14.9%
14,CC(=O)c1ccc(NC(=S)NCc2ccc(Cl)cc2Cl)cc1,12.6%
15,CC1CN(S(=O)(=O)c2cccc(C(=O)Nc3ccccc3N3CCCCC3)c2)CC(C)O1 (stereo not shown),14%
16,Cc1ccc(C)c(OC(=O)CN2C(=O)c3ccccc3C2=O)c1,14.7%
17,O=C(CSc1nc2c(c(C(F)(F)F)n1)CCc1ccccc1-2)NCc1ccc(F)cc1,17.3%
18,CCCCC(CCC(=O)O)(C(=O)OCC)c1csc(N)n1 (stereo not shown),8.87%
19,S=c1[nH]nc(-c2ccco2)n1Cc1ccccc1,11.7%
20,COCc1c(C(=O)N/N=C(/C)c2ccccc2)nnn1-c1nonc1N,9%
21,Cc1ccc2c(c1)sc1nc(=O)n(-c3cccc(Cl)c3)c(=O)n12,3.35%
22,CN(C)C(CNc1ncnc2sccc12)c1cccs1 (stereo not shown),4.86%
23,O=c1[nH][nH]cc1C=NCc1cccnc1,6.48%
24,CCOc1cc(C)cc2oc(=O)cc(-c3ccccc3)c12,8.74%
25,O=C(CN1C(=O)NC2(CCCCCC2)C1=O)c1ccc(F)cc1,-2.49%
